Results from patent US20260242436A1 (HANMI PHARM, published 2026).

B1: aldesleukin (interleukin-2 analog 1) (ligand)
chain: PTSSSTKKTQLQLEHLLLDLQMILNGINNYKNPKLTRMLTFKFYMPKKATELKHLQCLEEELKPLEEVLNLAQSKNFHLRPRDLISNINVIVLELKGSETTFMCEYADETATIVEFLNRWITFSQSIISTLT
notes: also called Analog 01
B2: Interleukin-2 analog conjugate 41 (other)
chain 1: PTSSSTKKTQLQLEHLLLDLQMILNGINNYKNPKLTRMLTFKFYMPKKATELKHLQCLEEELKPLEEVLNLAQSKNFHFDPRDVVSNINVFVLELKGSETTFMCEYADETATIVEFLNRWITFSQSIISTLT
chain 2: [gap - human IgG4 Fc]
modifications: nitrogen of the N-terminal proline of one Fc chain linked to the opposite end of the 3.4 kDa PEG linker; N-terminus linked to one end of a 3.4 kDa PEG linker
notes: also called long-acting conjugate of interleukin-2 analog 41
B3: Interleukin-2 analog conjugate 86 (other)
chain 1: B2 chain 1 with L17R, Q21E, D80E
chain 2: [gap - human IgG4 Fc]
modifications: nitrogen of the N-terminal proline of one Fc chain linked to the opposite end of the 3.4 kDa PEG linker; N-terminus linked to one end of a 3.4 kDa PEG linker
notes: also called long-acting conjugate of interleukin-2 analog 86
B4: Interleukin-2 analog conjugate 104 (other)
chain 1: B2 chain 1 with L17R, Q21E, E60D, D80E
chain 2: [gap - human IgG4 Fc]
modifications: nitrogen of the N-terminal proline of one Fc chain linked to the opposite end of the 3.4 kDa PEG linker; N-terminus linked to one end of a 3.4 kDa PEG linker
B5: Interleukin-2 analog conjugate 105 (other)
chain 1: B2 chain 1 with L17R, Q21E, E67D, D80E
chain 2: [gap - human IgG4 Fc]
modifications: nitrogen of the N-terminal proline of one Fc chain linked to the opposite end of the 3.4 kDa PEG linker; N-terminus linked to one end of a 3.4 kDa PEG linker
notes: also called long-acting conjugate of interleukin-2 analog 105
B6: Interleukin-2 analog conjugate 21 (other)
chain 1: B2 chain 1 with R37A, F41K
chain 2: [gap - human IgG4 Fc]
modifications: nitrogen of the N-terminal proline of one Fc chain linked to the opposite end of the 3.4 kDa PEG linker; N-terminus linked to one end of a 3.4 kDa PEG linker
notes: also called long-acting conjugate of interleukin-2 analog 21; interleukin-2 analog-3.4K PEG-immunoglobulin Fc region conjugate
B7: Interleukin-2 analog conjugate 52 (other)
chain 1: B2 chain 1 with R37A, F41K, V84L, V85I
chain 2: [gap - human IgG4 Fc]
modifications: nitrogen of the N-terminal proline of one Fc chain linked to the opposite end of the 3.4 kDa PEG linker; N-terminus linked to one end of a 3.4 kDa PEG linker
notes: also called long-acting conjugate of interleukin-2 analog 52

biological target: T1, biotin-labeled human interleukin-2 receptor alpha subunit (ACROBiosystems) (human, UniProt P01589 22-213, biotin-labeled (site not stated)); experiment: SPR (Biacore T200); biotinylated receptor on SA chip, analyte flowed; relative to aldesleukin = 100%
T1 construct: Immobilized on a streptavidin (SA) chip at about 100 RU
T1 sequence (looked up): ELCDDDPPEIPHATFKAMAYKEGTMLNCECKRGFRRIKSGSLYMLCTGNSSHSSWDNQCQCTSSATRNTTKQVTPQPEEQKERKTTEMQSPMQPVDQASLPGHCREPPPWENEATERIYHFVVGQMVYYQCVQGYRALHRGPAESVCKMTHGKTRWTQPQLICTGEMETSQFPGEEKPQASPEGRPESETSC
From the text: (§1) In order to measure the binding affinities of each of the interleukin-2 analog long-acting conjugates obtained in Example 7 for the interleukin-2 alpha and beta receptors, surface plasma resonance (SPR, BIACORE T200, GE Healthcare) was used.
(§2) Specifically, biotin-labeled human interleukin-2 receptor alpha and beta subunits (ACROBiosystems) each were immobilized to a streptavidin biosensor chip (SA chip, Cytiva) at about 100 RU and 500 RU, and the interleukin-2 analog long-acting conjugates and aldesleukin, diluted in HBS-EP+ buffer (Cytiva, BR100669) by a two-fold dilution method, were allowed to flow at a flow rate of 20 μL/min. After the binding process for 3 minutes, only HBS-EP+ buffer was allowed to flow for 3 minutes at the same flow rate to induce the dissociation of the interleukin-2 analog long-acting conjugates or aldesleukin from the interleukin-2 receptors. The binding affinity was calculated through the association constant and dissociation constant thus obtained. The binding affinity was evaluated according to the 1:1 binding fitting model in the Biaevaluation program.
(§3) Table 5 below summarizes the relative binding affinity (%) of the prepared interleukin-2 analog long-acting conjugates for each of the alpha and beta receptors compared with the binding affinity of aldesleukin. In Table 5, each corresponding long-acting conjugate is expressed by using the interleukin-2 analog number constituting the same (e.g., the long-acting conjugate of interleukin-2 analog 21 is expressed as “interleukin-2 analog conjugate 21”).

| Binder | Relative binding affinity (%) |
| --- | --- |
| B1 | 100 |
| B2 | 50.8 |
| B3 | 65.2 |
| B4 | 81 |
| B5 | 113 |

biological target: T2, biotin-labeled human interleukin-2 receptor beta subunit (ACROBiosystems) (human, UniProt P14784 27-239, biotin-labeled (site not stated)); experiment: as above
T2 construct: Immobilized on a streptavidin (SA) chip at about 500 RU
T2 sequence (looked up): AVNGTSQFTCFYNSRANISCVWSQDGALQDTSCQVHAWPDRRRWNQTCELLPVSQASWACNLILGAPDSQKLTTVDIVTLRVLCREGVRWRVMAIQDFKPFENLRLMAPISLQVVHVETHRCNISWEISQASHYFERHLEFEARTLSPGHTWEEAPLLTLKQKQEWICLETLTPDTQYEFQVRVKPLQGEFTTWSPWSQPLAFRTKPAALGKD
From the text: as §1, §2, §3

| Binder | Relative binding affinity (%) |
| --- | --- |
| B1 | 100 |
| B2 | 5480 |
| B6 | 5430 |
| B7 | 2270 |
| B3 | 15400 |
| B4 | 13400 |
| B5 | 13300 |

biological target: T1, biotin-labeled human interleukin-2 …; experiment: SPR (Biacore T200); biotinylated receptor on SA chip

| Binder | binding result |
| --- | --- |
| B6 | no binding |
| B7 | no binding |

Positions count from the first letter of the chain named.
